From ChEMBL document CHEMBL4428129, “Analysis of quinolinequinone reactivity, cytotoxicity, and anti-HIV-1 properties” (Bioorg Med Chem, 2016)
The source made the active and inactive calls. The rule behind the calls is not given here.

What was measured:
[1] = test system: Human immunodeficiency virus 1; experiment: Antiviral activity against HIV1 infected in HEK293T cells at 1 mM after 1 hr by luciferase reporter gene assay relative to control; assay type: functional
Outline: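 Infected 200,000 HEK293T cells with 8 µg/ml polybrene for 48 h alongside a no-virus mock. Lysates assayed for luciferase with ATP and D-luciferin. Two separate experiments, mean ± SD.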

[2] = test system: Human immunodeficiency virus 1; experiment: Antiviral activity against GFP-transducing HIV1 infected in HEK293T cells at 1 mM after 1 hr by GFP fluorescence assay; assay type: functional, organism-based
Outline: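 GFP-reporter HIV-1 (psPAX2 + VSV-G + GFP lentivector, made by HEK293T co-transfection) pelleted and resuspended in PBS. Used to infect 200,000 HEK293T cells in DMEM with 8 µg/ml polybrene, 48 h at 37°C. Cells fixed in 4% paraformaldehyde; GFP-positive cells imaged by fluorescence microscopy.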

[3] = target: Soluble guanylate cyclase (Homo sapiens, UniProt O75343+P33402+Q02108+Q02153); experiment: Inhibition of soluble guanylate cyclase (unknown origin); assay type: protein-complex assay

For `c1ccc(SSc2ccccn2)nc1`, the “fold change (FC)” value [1] was over 4 and the Activity [2] was “Active”.
For `O=C1C(Nc2ccccc2)=CC(=O)c2ncccc21`, the IC50 [3] was 1 to 2 µM.
